Measurements taken from PubChem BioAssay (NCI).
Several values for one entry are separate records, joined by “and”; a condition that tells them apart may be missing. Equal entries are not always repeated.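 The compound was tested at five concentrations on cells cultured in 96-well plates, with a 48-hour exposure period. GI50 is the concentration that inhibits growth by half. TGI denotes the concentration required for complete inhibition of growth.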

System: NCI-H322M lung
Test: growth of human tumour cells (NCI), 48 h

| Compound | TGI | GI50 |
| --- | --- | --- |
| CSc1nc2c3ccccc3ccn2c1C(=O)N/N=C/c1ccccc1 | > 100 µM | – |
| O=C1c2ccccc2C(=O)c2c1cc1c(c2[N+](=O)[O-])OCO1 | 13.3 µM | 2.7 µM |
| O=C(c1ccco1)c1c(C(F)(F)F)n([O-])c2cc(F)c(F)cc2[n+]1=O | 4.59 µM | 1.81 µM |
| CC(=O)NCCCCN(CCCNC(C)=O)C(=O)OCc1ccccc1 | > 100 µM | – |
| O=c1[nH]c(=S)[nH]c(-c2ccccc2)c1Cc1c(O)ccc2ccccc12 | 77.7 µM | – |
| Cc1ccc(S(=O)(=O)NC(=O)Nc2cc(Cl)c(S(N)(=O)=O)cc2S(N)(=O)=O)cc1 | > 100 µM | – |
| CC(=O)N(O)c1ccc(/C=C/c2ccccc2)cc1 | 12 µM | 3.07 µM |
| COC(=O)c1ccc(C=C(C#N)C#N)cc1 | > 100 µM | – |
| Nc1[nH]c(=O)[nH]c(=O)c1Cc1cccc(Cl)c1 | > 100 µM | – |
| [Cl][Cu][Cl] | > 10 µM | > 10 µM |
| O=C(O)CC12CC3CC(CC(O)(C3)C1)C2 | > 100 µM | – |
| N#CCNC(=O)c1ccc(-c2ccnc(Nc3ccc(N4CCOCC4)cc3)n2)cc1 | > 10 µM and 38 µM | 5.24 µM and 2.28 µM |
| Nc1nc2ncn(CC(O)CO)c2c(=O)[nH]1 (configuration not stated) | > 100 µM | – |
| FC(F)(F)c1cccnc1Sc1nc2ccccc2s1 | > 100 µM | – |
| COc1ccc(NC/C=C/C(=C/COC(C)=O)OC(C)=O)cc1 | 20.4 µM | – |
| O=S(=O)(O)c1ccc2cc3nn(-c4ccc(/C=C/c5ccc(-n6nc7cc8ccc(S(=O)(=O)O)cc8cc7n6)cc5S(=O)(=O)O)c(S(=O)(=O)O)c4)nc3cc2c1 | > 100 µM | 73.6 µM |
| CN(CCNC(=S)c1cn(C)c2c1ccc1ccccc12)CCNC(=S)c1cn(C)c2c1ccc1ccccc12 | > 100 µM | – |
| COc1cc(/C=C/C(=O)O[C@H]2[C@H](O[C@@H]3O[C@@H](C)[C@H](O)[C@@H](O)[C@H]3O)[C@@H](O)[C@H](OCCc3ccc(O)c(O)c3)O[C@@H]2COC2OCC(O)(CO)C2O)ccc1O (some centres not stated) | > 100 µM | 85 µM |
| CN(C)CCCn1c2c(c3cc4c(cc3c1=O)OCO4)C(=O)c1ccccc1-2 | 10.5 µM | 3.12 µM |
| Cc1cc(O)c2c3c(ccc2c1)C(=O)c1c(O)cccc1C3=O | > 100 µM | – |
| O=C1C=C(C2=C(C3=CC(=O)c4ccccc4C3=O)C(=O)c3ccccc3C2=O)C(=O)c2ccccc21 | 31.6 µM | – |
| COc1ccc(COc2cc3oc(=O)c4cc(C(C)O)ccc4c3cc2OC)cc1 (configuration not stated) | > 100 µM | 26 µM |
| O=C(c1cc(Cc2n[nH]c(=O)c3ccccc23)ccc1F)N1CCN(C(=O)C2CC2)CC1 | > 100 µM | > 100 µM |

| Compound | TGI | GI50 |
| --- | --- | --- |
| c1ccc(C2=C(c3ccccc3)Sc3nnc(CCCCCCCCc4nnc5n4NC(c4ccccc4)=C(c4ccccc4)S5)n3N2)cc1 | > 100 µM | – |
| Cc1cc2c(c(=O)o1)C1=S(SC(c3ccccc3)=C1)S2 (configuration not stated) | > 100 µM | – |
| COc1c(OC(C)C)cc2cc(O)c(C(=O)NC3Cc4ccc(c(Cl)n4)O[C@@H]4C=C5C#C/C(=C\C#CC6OC56C4OC4CC(C)(O)C(O)C(C)O4)C(OC4CC(O)C(N(C)C)C(C)O4)COC3=O)cc2c1OC (some centres not stated) | > 36.3 µM and 37.5 µg/mL | > 36.3 µM and 10.8 µg/mL |
| O=C1C(Sc2ccc3ccccc3c2)=C(Sc2ccc3ccccc3c2)C(=O)c2ccccc21 | 40.4 µM | – |
| O=C1C(Nc2cccc(O)c2)=C(Sc2ccccc2)C(=O)N1Cc1ccccc1 | 25.5 µM | 12.9 µM |
| COc1ccc(/C=C/c2cc(OC)c(OCc3ccccc3)c(OC)c2)cc1 | > 100 µM | – |
| c1ccc2c(-c3csc(-c4c[nH]c5ccccc45)n3)c[nH]c2c1 | > 100 µM | – |
| Cc1cn(C2CC(O)C(Cn3nncc3Cn3ncc(=O)[nH]c3=O)O2)c(=O)[nH]c1=O (configuration not stated) | > 100 µM | – |
| CC(C)=CCC/C(C)=C/CCC1(C)C=Cc2c(c3ccccc3oc2=O)O1 (configuration not stated) | 31 µM | – |
| CC(C)=CC(=O)OC1C2C(C)=CC(O)C(O)C2(C)C2C3(O)OCC24C(CC(=O)OC14)C(C)C3O (configuration not stated) | 5.99 µM | – |
| CCn1ccnc1C(=O)/C=C/c1ccc(CC(=O)Nc2ccc(F)cc2)cc1 | 15.6 µM | 3.49 µM |
| O=[N+]([O-])c1cc(Cc2cc([N+](=O)[O-])c3cccnc3c2O)c(O)c2ncccc12 | 47.2 µM | – |
| COC(=O)CCC(NC(=S)N/N=C(\C)c1cnccn1)C(=O)OC (configuration not stated) | > 100 µM | – |
| CC1CCC2C(CN(CC3=C(C(F)(F)F)OC4OC5(C)CCC6C(C)CCC3C46OO5)CC3=C(C(F)(F)F)OC4OC5(C)CCC6C(C)CCC3C46OO5)=C(C(F)(F)F)OC3OC4(C)CCC1C32OO4 (configuration not stated) | > 100 µM | 59.5 µM |
| Cc1ccc(NC(=O)/C(C#N)=C/c2ccccc2)c(C)c1 | > 100 µM | – |
| Cc1ccc(S(=O)(=O)NC(=O)OC23COCN2COC3)cc1 | > 100 µM | – |
| COc1ccc(-n2c(C)nc3ccc(NC4OC(CO)C(O)C(O)C4O)cc3c2=O)cc1 (configuration not stated) | > 100 µM | – |
| COc1ccc2c(c1)C(=O)c1c-2c(=O)n(CCCN(C)C)c2cc(OC)c(OC)cc12 | 27.8 µM | 14.7 µM |
| CC1CCC2(C)C(CC=C(C=O)C2(O)C=O)C12CO2 (configuration not stated) | 16 µM | – |
| COc1ccc(NC(=O)C(=O)Cc2nc3ccc(C(=O)c4ccccc4)cc3[nH]c2=O)c([N+](=O)[O-])c1 | > 100 µM | – |
| Fc1ccc2nc(-c3nc(-c4ccccc4)n4ccccc34)[nH]c2c1 | 10.5 µM | 3.18 µM |
| Nc1nc(C(=O)O)c(N=Nc2ccccc2)c(=O)[nH]1 | > 100 µM | – |
| O=c1n(-c2ccccc2)c(=O)n2c(-c3ccccc3)c(-c3ccccc3)n12 | > 100 µM | – |

| Compound | TGI | GI50 |
| --- | --- | --- |
| Cc1ccc(/N=N/C(=NNC(=O)c2ccc(C)cc2)c2ccc(N(C)C)cc2)cc1 | > 100 µM | – |
| O=S(=O)(NCCCNc1cc(-c2cn(-c3ccccc3)nc2-c2cccc(O)c2)ccn1)c1ccc(F)cc1 | 46.4 µM | 4.7 µM |
| CN(C)c1nc(N)c(C#N)c(C#N)c1C#N | > 10 µM | – |
| Oc1cccnc1/C=N/OCc1ccccc1 | > 100 µM | – |
| CC(C)N(Cc1ccc(F)cc1)c1ccc(CO)c(Cl)c1 | 21 µM | 7.19 µM |
| C[C@@H](NC(=O)c1ccc(F)cc1)c1ccc2c(c1)CCN2C(=O)C1CCOCC1 | > 100 µM | > 100 µM |
| O=C1/C(=C/c2cccs2)NC(=S)N1CN1CCCCC1 | > 100 µM | – |
| CC(=O)N(CC(=O)C(=O)NNc1ccoc1)c1ccc(Cl)cc1 | > 100 µM | – |
| O=[N+]([O-])C(=C/c1cccc2ccccc12)/C(=C\c1cccc2ccccc12)[N+](=O)[O-] | 21.9 µM | – |
| COc1cc(C(=O)/C=C/c2c(C(F)(F)F)nc3ccccn23)cc(OC)c1OC | 3.58 µM | 1.66 µM |
| CC(C)N(C(=O)C12C3C4C1C1C2C3C41C(=O)N(C(C)C)C(C)C)C(C)C (configuration not stated) | > 50 µM | – |
| CC(C)OC(=O)C1Cc2c([nH]c3ccccc23)C(c2ccccc2)N1 (configuration not stated) | > 100 µM | – |
| C[C@H]1C[C@H]2[C@@H]3CCC4=CC(=O)C=C[C@]4(C)C3=CC[C@]2(C)[C@@]1(O)C(=O)CO | > 100 µM | – |
| C=CCN(CC=C)C(=O)[C@H](CC)[C@@H]1CC[C@@H](C)[C@@H]([C@H](C)[C@@H](O)[C@@H](C)C(=O)[C@H](CC)C2O[C@]3(C=C[C@@H](O)[C@]4(CC[C@@](C)([C@H]5CC[C@](O)(CC)[C@H](C)O5)O4)O3)[C@H](C)C[C@@H]2C)O1 (some centres not stated) | 6.77 µM | 2.31 µM |
| CC(=O)O[C@@H]1[C@H]2[C@@H](OC(=O)c3ccccc3)[C@@H](C)C[C@]2(O)[C@H](OC(C)=O)[C@@]2(C)[C@@H]3C[C@@](C)(OC(C)=O)C[C@@H](OC(C)=O)[C@@]3(OC(C)=O)C[C@@]12C | > 10 µM | – |
| N#Cc1c(NC(=O)c2ccccc2F)sc2c1CCCC2 | > 25 µM | > 25 µM |
| O=S(=O)(NCCCNc1nccc(-c2c(-c3ccc(F)cc3)nc3sccn23)n1)c1ccc(F)cc1 | > 100 µM | 25.4 µM |
| CN(C)CC(/C(Cc1ccccc1)=N\NC(=S)NN)c1ccccc1 (configuration not stated) | > 100 µM | – |
| CC1=NNC(=S)NCCCN2CCN(CCCNC(=S)NN=C(C)C=NNC(=S)NCCCN3CCN(CCCNC(=S)NN=C1)CC3)CC2 | > 100 µM | – |
| Cc1ccc(-n2c(-c3cc4c([nH]c5ccccc54)c(-c4cccc(O)c4)n3)n[nH]c2=S)cc1 | 5.61 µM | 0.694 µM |
| O=C(N/N=C(\C1=Nc2ccc(Cl)cc2NC1O)C(O)/C=C/c1ccccc1)c1ccncc1 (configuration not stated) | > 100 µM | – |
| Cn1c(C(=O)c2cccc3ccccc23)nc2ccccc21 | > 100 µM | > 100 µM |
| Nc1nc2c(ncn2CCCC(c2ccccc2)P(=O)(O)O)c(=O)[nH]1 (configuration not stated) | > 100 µM | – |

| Compound | TGI | GI50 |
| --- | --- | --- |
| Cc1ccc(Cl)cc1-n1c(C)nc2c(cnn2-c2ccnc3c(C(F)(F)F)cccc23)c1=O | > 100 µM | > 100 µM |
| O=C(Nc1nc2ncn(CCO)c2c(=O)[nH]1)c1ccccc1 | > 100 µM | – |
| O=S(=O)(O)c1ccc2cc(N=Nc3c(O)ccc4ccccc34)ccc2c1 | > 100 µM | – |
| c1ccc2c(CNCCN3CCNCC3)c3ccccc3c(CNCCN3CCNCC3)c2c1 | 34.6 µM | 8.91 µM |
| COc1ccc2nc3cc(Cl)ccc3c(N3CCN(c4ccnc(N5CCN(C)CC5)n4)CC3)c2c1 | 25.1 µM | 10.7 µM |
| O=C(Cc1ccccc1)C(c1ccccc1)S(=O)(=O)c1ccccc1 (configuration not stated) | > 100 µM | – |
| Cc1ccc(/C=C2\Cc3cc(C)c(C)cc3C2=O)c(C(=O)O)c1 | > 100 µM | – |
| Clc1ccc([I+]c2ccc(Cl)cc2Cl)c(Cl)c1 | 13.4 µM | 4.02 µM |
| O=C(Nc1ccc2[nH]c(C(=O)N3CC(CCl)c4ccc([N+](=O)[O-])cc43)cc2c1)c1cc2ccccc2o1 (configuration not stated) | > 1100 µM | – |
| Clc1nc(Cl)c2ncn(CCOCCn3cnc4c(Cl)nc(Cl)nc43)c2n1 | 3.04 µM | 1.65 µM |
| COc1ccc(C(=O)Oc2c(C#N)sc3c2c(=O)n(-c2ccccc2)c(=S)n3-c2ccccc2)cc1 | > 100 µM | – |
| CCC(=O)C(CCN1CCC(N2C(=O)C(CCC#N)c3ccccc32)CC1)(c1ccccc1)c1ccccc1 (configuration not stated) | 67.6 µM | – |
| COc1cc(-c2ncn(/C=C\c3nnco3)n2)cc(C(F)(F)F)c1 | 47.5 µM | 0.262 µM |
| C#CCNC(=O)NC(CCCCNC(=O)OCc1ccccc1)C(=O)OCc1ccccc1 (configuration not stated) | > 100 µM | – |
| O=C1/C(=C/c2ccccc2[N+](=O)[O-])COc2ccc(O)cc21 | 21 µM | 8.67 µM |
| O=C(c1c(O)cc(O)cc1O)C1Cc2ccccc21 (configuration not stated) | > 100 µM | – |
| C[C@H](NC(=O)CNC(=O)CCCCCC(=O)NCC(=O)N[C@@H](C)C(=O)OCc1ccccc1)C(=O)OCc1ccccc1 | > 100 µM | – |
| CNC(=O)CCCNC(=O)CCCC(=O)OC | > 100 µM | – |
| COc1ccc(/C=N\Nc2nc(SCC(C)C)nc(-c3ccc(OC)cc3)c2C#N)cc1 | 76.2 µM | 4.47 µM |
| CCc1ccccc1NC(=O)CC1NC(=O)CS1 (configuration not stated) | > 100 µM | – |
